Results as given in PubChem BioAssay AID1347428 (National Center for Advancing Translational Sciences (NCATS), 2020).
The campaign covered roughly 91,000 compounds. About 290 (0.32%) were called active. Inconclusive results, whose numbers are uncertain, are shown with a selection of clear calls. The call rests on the fitted dose curve; in most records, active means well fitted inhibition curve with a large enough effect; inconclusive means small, poorly fitted or top-dose-only effect; inactive means no such curve, though single readings can be large or run the other way. Where the call is inconclusive, the potency comes from a doubtful curve fit.

target: Single-stranded DNA cytosine deaminase (Homo sapiens) (UniProt Q9GZX7); experiment: Primary qHTS assay for inhibitors of Activation Induced Cytidine Deaminase (AID): AID signal; settings: AID deamination FRET fluorescence, UDG-coupled, 4 h; activity change, negative = inhibition: at 115 µM (top of the series); further: nearly all actives have a fitted effect of over 25% in size
Chain of UniProt Q9GZX7 (Q9GZX7 whole entry, looked up): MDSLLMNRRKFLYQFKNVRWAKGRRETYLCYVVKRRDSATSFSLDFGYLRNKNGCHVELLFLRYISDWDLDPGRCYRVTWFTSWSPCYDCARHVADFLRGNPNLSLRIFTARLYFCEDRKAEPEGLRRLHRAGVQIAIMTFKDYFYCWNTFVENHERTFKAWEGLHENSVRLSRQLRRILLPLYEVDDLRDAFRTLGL
On the % scale 0 is the no-effect control and ±100 the full control effect; potency means the concentration at half of the fitted maximal effect; tags describe the fitted curve by direction and shape.

SMILES	activity change, negative = inhibition	Potency
COc1ccc(/C=C/c2ccc3cc(C)ccc3n2)cc1O	inactive: 32.3%	–
CC(C)(C)c1cc(-c2ccccc2)c2c3c(sc2n1)CCCC3	inactive: -4.59%	–
CCc1cccc(-n2c(C)nc3c(cnn3-c3ccc(Cl)cc3)c2=O)c1	–	inconclusive: 50.1 µM [inhibitor, partial curve, poor fit]
Fc1ccc(-c2noc3ncnc(N4CCN(c5ccccc5)CC4)c23)cc1	–	inconclusive: 89.1 µM [inhibitor, partial curve, poor fit]
CCCN1CCN(CCCNc2nc(-c3ccc(OC)cc3)nc3ccccc23)CC1	–	inconclusive: 79.4 µM [inhibitor, partial curve, poor fit]
CCN(CC)CCCC(C)Nc1c2ccc(Cl)cc2nc2ccc(OC)cc12 (stereo not drawn)	–	inconclusive: 50.1 µM [inhibitor, partial curve]
O=C(Nc1cccc(N2CCCC2=O)c1)c1ccccc1SC1CCS(=O)(=O)C1 (stereo not drawn)	inactive: -13.1%	–
Cc1ccc(-n2ncc(C(=O)N3CCN(c4cccc(C)c4)C(C)C3)c2C2CCN(C(=O)OC(C)(C)C)CC2)cc1 (stereo not drawn)	–	inconclusive: 39.8 µM [inhibitor, full curve, poor fit]
Cc1[nH]c(=O)[nH]c(=O)c1C1N2CC3(C(C)C)CN1CC(C(C)C)(C2)C3=O (stereo not drawn)	–	inconclusive: 50.1 µM [inhibitor, partial curve, poor fit]
O=C(c1cn[nH]c1-c1ccc(F)cc1)N1CCCCCC1	inactive: 4.12%	–
CCCOc1ccccc1Cn1c(=O)sc2ccccc21	–	inconclusive: 44.7 µM [inhibitor, full curve, poor fit]
O=C(NNc1ncnc2c1cnn2-c1ccccc1)c1cccc(Cl)c1	inactive: -2.64%	–
CC(C)c1ccc(C(C)NC(=O)c2ccc(C(F)(F)F)nc2)cc1 (stereo not drawn)	inactive: -6.37%	–
Cc1ccc(-c2cn3c(n2)sc2cc(C(=O)N4CCCCC4)ccc23)cc1	–	inconclusive: 22.4 µM [inhibitor, full curve, poor fit]
COC(=O)C(C)Sc1nc2c([nH]c3ccccc32)c(=O)n1-c1ccc(OC)cc1 (stereo not drawn)	–	inconclusive: 100 µM [inhibitor, single point]
COc1cccc(N2CCN(c3nc4ccc(C(=O)c5ccccc5)cc4n4c(C)nnc34)CC2)c1	–	inconclusive: 100 µM [inhibitor, single point]
COc1ccc(CNC(=O)c2ccc3c(c2)N(Cc2ccccc2)C(=O)c2ccccc2S3(=O)=O)cc1	–	inconclusive: 28.2 µM [inhibitor, single point]
CCOc1cc(CNc2ccc(O)cc2)cc(Br)c1OCc1ccccc1	inactive: 3.52%	–
CCCN(C(=O)c1cc2c(Cl)nc3ccccc3c2s1)c1cccc(C)c1	–	inconclusive: 79.4 µM [inhibitor, partial curve, poor fit]

SMILES	activity change, negative = inhibition	Potency
CCCN(CCC)C(=O)Cn1c(=O)n(Cc2ccc(C(=O)NCCc3ccc(OC)c(OC)c3)cc2)c(=O)c2ccccc21	–	inconclusive: 28.2 µM [inhibitor, full curve, poor fit]
CCCn1nc(C(=O)Nc2nc3ccc(OCC)cc3s2)c2ccccc2c1=O	inactive: -3.11%	–
O=C(Nc1ccc(Cl)cc1)C1CCN(c2nc3ccccc3n3cccc23)CC1	–	inconclusive: 89.1 µM [inhibitor, single point]
CCC(C(=O)Nc1cccc(-c2cn3cccnc3n2)c1)c1ccccc1 (stereo not drawn)	–	inconclusive: 89.1 µM [inhibitor, partial curve, poor fit]
COc1ccc(Br)cc1CNC(=O)CCCn1c(=O)c2cccn2c2ccccc21	–	inconclusive: 17.8 µM [inhibitor, partial curve, poor fit]
Cc1ccc(NC(=O)CCSCCc2ccccn2)cc1	–	inconclusive: 3.55 µM [inhibitor, full curve, poor fit]
Cc1ccc(-c2cc3ncc(C(=O)c4cc([N+](=O)[O-])ccc4O)cn3n2)cc1	–	inconclusive: 89.1 µM [inhibitor, partial curve, poor fit]
CCc1ccc(-n2c(C)nnc2SCc2nc(-c3ccc(OC)cc3)no2)cc1	–	inconclusive: 79.4 µM [inhibitor, single point]
CN(Cc1ccccc1)c1nc(-c2ccc(F)cc2)cc(C(F)(F)F)n1	–	inconclusive: 28.2 µM [inhibitor, partial curve, poor fit]
COc1ccc(N2CCN(C(=O)CSc3nc4ccccc4nc3Cc3ccc(Cl)cc3)CC2)cc1	–	inconclusive: 14.1 µM [inhibitor, full curve, poor fit]
CCOc1ccc(N(CC)C(=O)c2noc3c2COc2ccc(C)cc2-3)cc1	–	inconclusive: 39.8 µM [inhibitor, partial curve, poor fit]
COc1ccccc1C(=O)Nc1c(C(=O)c2ccccc2)oc2ccccc12	–	inconclusive: 31.6 µM [inhibitor, partial curve, poor fit]
COc1cccc(NC(c2nnc(-c3ccccc3)o2)c2ccc(F)cc2Cl)c1 (stereo not drawn)	–	inconclusive: 31.6 µM [inhibitor, partial curve, poor fit]
CC(C)(C)c1ccc(C(=O)Nc2nc3nc(-c4ccccc4)cc(=O)n3[nH]2)cc1	–	inconclusive: 28.2 µM [inhibitor, partial curve]
Cc1ccccc1Nc1nnc(-c2ccc(C)c(S(=O)(=O)N3CCN(C)CC3)c2)c2ccccc12	–	inconclusive: 22.4 µM [inhibitor, single point]
COc1ccc(C(C(=O)Nc2ccc(C(C)C)cc2)N(C)C(=O)Cc2cccs2)cc1 (stereo not drawn)	–	inconclusive: 17.8 µM [inhibitor, full curve, poor fit]
CC(C)N(Cc1ccccc1)C(=O)c1cc2ccc3cccnc3c2[nH]1	–	inconclusive: 56.2 µM [inhibitor, partial curve, poor fit]
COc1ccc(Nc2ncc(C(=O)N3CCN(c4ccc(OC)cc4)CC3)c3ccccc23)cc1	–	inconclusive: 50.1 µM [inhibitor, partial curve, poor fit]
COc1ccc(-c2nn3c(-c4ccc(C(C)(C)C)cc4)nnc3s2)cc1OC	–	inconclusive: 50.1 µM [inhibitor, partial curve, poor fit]
